Measurements reported in article PMC6919601, “Identification of Plasmodium dipeptidyl aminopeptidase allosteric inhibitors by high throughput screening” (PLoS ONE, 2019).
The campaign covered roughly 110,000 compounds. About 230 (0.21%) showed an effect of 50% or more. The list shows a part of the results.

Each molecule was assayed against DPAP1 (Plasmodium falciparum, UniProt Q8IIJ9) (assay: primary screen, percent inhibition; read by cleavage of a fluorogenic dipeptide substrate; higher = more effect of the substance).
Chain of DPAP1 (Q8IIJ9 whole entry, looked up): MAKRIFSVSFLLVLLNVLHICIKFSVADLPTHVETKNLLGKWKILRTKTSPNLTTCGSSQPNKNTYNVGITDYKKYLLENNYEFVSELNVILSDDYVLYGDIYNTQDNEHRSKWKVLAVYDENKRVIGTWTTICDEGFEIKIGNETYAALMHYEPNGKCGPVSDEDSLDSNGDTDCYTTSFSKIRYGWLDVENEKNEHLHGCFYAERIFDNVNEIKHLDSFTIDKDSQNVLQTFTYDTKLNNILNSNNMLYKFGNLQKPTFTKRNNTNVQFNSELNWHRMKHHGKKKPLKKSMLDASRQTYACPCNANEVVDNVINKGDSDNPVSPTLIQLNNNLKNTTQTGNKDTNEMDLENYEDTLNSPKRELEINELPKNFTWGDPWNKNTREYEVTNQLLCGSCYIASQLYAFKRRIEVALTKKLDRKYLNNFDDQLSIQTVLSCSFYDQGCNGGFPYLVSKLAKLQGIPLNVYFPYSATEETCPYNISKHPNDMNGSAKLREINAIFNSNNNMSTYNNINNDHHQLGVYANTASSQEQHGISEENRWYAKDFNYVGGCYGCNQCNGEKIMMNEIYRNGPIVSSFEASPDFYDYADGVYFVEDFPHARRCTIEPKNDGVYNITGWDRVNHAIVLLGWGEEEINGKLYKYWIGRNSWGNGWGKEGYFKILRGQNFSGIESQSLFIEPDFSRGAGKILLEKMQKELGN
Set-up: species or system P. falciparum D10 trophozoite lysates; single well
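Further: 30 min substrate incubation versus DMSO and 10 µM JCP410 controls.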

| SMILES | % Inhibition @ 10 uM |
| --- | --- |
| O=C(NCc1nnc(SCC(=O)N2CCC(Cc3ccccc3)CC2)o1)c1ccccc1F | -5.27% |
| N#CC1=C(N)OC2=C(C(=O)CC(c3ccccc3)C2)C1c1ccc(C(F)(F)F)cc1 (stereo not drawn) | 1.41% |
| C=CCNc1nc(Nc2cccc([N+](=O)[O-])c2)nc(OC(C(F)(F)F)C(F)(F)F)n1 | 1.7% |
| CC(C)CS(=O)(=O)c1oc(-c2cccs2)nc1S(=O)(=O)c1ccc(F)cc1 | 3.74% |
| O=C(CN(Cc1ccccc1)Cc1ccccc1)NC12CC3CC(CC(C3)C1)C2 | 8.31% |
| CCCNC(=O)c1c(C)nn(-c2ccccc2)c1-n1cccc1 | -1.58% |
| Cc1ccc(CNC(=O)c2c(-c3ccccc3Cl)noc2C)cc1 | -2.65% |
| CC(C)C[C@H](NC(=O)OCc1ccc[n+](C)c1)C(=O)NCC#N | -9.37% |
| O=S(=O)(c1ccc(Cl)cc1)N1CCn2c1nc1ccccc12 | -1.43% |
| Cc1cc(C(=O)Nc2sc3c(c2C(N)=O)CCCCC3)c(C)o1 | 12.2% |
| N#C/C(=C\c1ccc(-c2ccc(F)cc2)o1)c1nn(-c2ccccc2)c(N)c1C#N | 4.42% |
| CC(=O)c1c(C)[nH]c(C(=O)N2CCN(c3ccccn3)CC2)c1C | -4.14% |
| O=C(c1sccc1-n1cccc1)N1CCCC1 | 1.72% |
| Clc1cccc(CCNCc2ccncc2)c1 | -1.59% |
| CC(C)C(=O)N1CCN(c2ccc(NC(=O)c3ccccc3F)cc2Cl)CC1 | -3.43% |
| Cc1ccccc1OC(C)C(=O)Nc1cccc(Cl)c1 (stereo not drawn) | -4.02% |
| CC1CC(=O)C2=C(C1)OC(N)=C(C#N)C2c1ccc(F)c(Br)c1 (stereo not drawn) | 1.41% |
| CC1CCCC(C)N1CCCNC(=O)Cn1ncc2c3ccccc3nc-2c1O (stereo not drawn) | -1.46% |
| COCCNC(=O)C1CCCN(c2nn3c(=O)cc(C)nc3s2)C1 (stereo not drawn) | -5.63% |
| COc1ccc(C2=N/C(=C\c3cccs3)C(=O)O2)c(Cl)c1 | -2.18% |
| Cc1nnc2c3ccccc3nc(N3CCC(Cc4ccccc4)CC3)n12 | 1.4% |
| COc1ccccc1/C=C/CN1CCSCC1 | 1.26% |
| Cc1cccc(CN2CCN(C(=O)c3ccc(F)cc3)CC2)c1 | -1.51% |
| Cc1ccc(OCC(=O)N(C)C2(C)CCS(=O)(=O)C2)cc1 (stereo not drawn) | -2.21% |
| Cn1c(=O)c2c(nc3n(CC(O)c4ccccc4)c(C45CC6CC(CC(C6)C4)C5)cn23)n(C)c1=O (stereo not drawn) | 0.0974% |
| Cc1ccc(S(=O)(=O)NCC2OCCc3ccccc32)cc1 (stereo not drawn) | -1.19% |

| SMILES | % Inhibition @ 10 uM |
| --- | --- |
| C=CCNC(=O)c1cc(-c2ccc(O)cc2)on1 | 3.89% |
| c1ccc2c3c([nH]c2c1)CN(Cc1ccoc1)CC3 | -8.13% |
| Cc1cc(Cl)ccc1OCCCC(=O)Nc1nc(C)c(C)s1 | 1.17% |
| O=C(NCCSc1ccccc1)c1ccc(CN2CCc3ccccc3C2)cc1 | -1.81% |
| N#C/C(=C/C=C/c1ccccc1)c1nc(-c2ccc(-c3ccccc3)cc2)cs1 | 3.74% |
| CN1CCN(Cc2csc3c2CCCC3)CC1 | -6.67% |
| Cc1onc(-c2ccccc2)c1C(=O)Nc1nnc(C(C)(C)C)s1 | 2.09% |
| N#Cc1c(-c2ccco2)cc(-c2ccc(F)cc2)nc1N | 22.7% |
| Cc1nc(=O)c(-c2ccccc2)c(C)n1C | 3.82% |
| CCN1C(=O)N/C(=C/c2cn(C(C)C)c3ccccc23)C1=O | -3.87% |
| N#CC1=C(N)N(c2c(F)cccc2F)C2=C(C(=O)CCC2)C1c1ccc(F)cc1 (stereo not drawn) | 1.82% |
| COc1ccc(-c2cn3c(n2)sc2cc(C(=O)NC4CCN(Cc5ccccc5)CC4)ccc23)cc1 | 9.55% |
| COc1cccc(N2CCN(C(=O)N[C@@H](CC(C)C)C(=O)NCC#N)CC2)c1 | -6.98% |
| COc1ccc(N(CC(=O)N(C)Cc2ccccc2)S(C)(=O)=O)cc1OC | 0.873% |
| COc1cc(OC)c(C(=O)N(Cc2nc(-c3ccccc3)no2)C(C)C)cc1OC | -1.24% |
| CCN1C(=O)N/C(=C/c2cc(C)n(Cc3ccccc3)c2C)C1=O | 1.92% |
| O=C(CNS(=O)(=O)c1cccs1)NCc1ccccc1 | -2.12% |
| Clc1ccc(CN2CCN(C/C=C/c3ccccc3)CC2)cc1 | -2.14% |
| Cc1c(CC(=O)NCc2ccccc2)c(=O)oc2cc(O)ccc12 | -4.39% |
| COc1ccc(C2CC(=O)C(/C=N/CCO)=C(O)C2)cc1OC (stereo not drawn) | -2.64% |
| Cc1cc2nc(C)n(CCCNC(=O)NC3CCCCC3)c2cc1C | -4.07% |
| Nc1cccc2c1C(=O)c1cccc(NC(=O)c3ccccc3)c1C2=O | 0.912% |
| CCOc1cc(/C=C2/SC(Nc3cccc(C(=O)O)c3)=NC2=O)cc(Br)c1OC | -3.26% |
| COc1ccc(Br)cc1CNC(=O)Nc1cccs1 | -1.11% |
| COC(=O)C1=C(NC(=O)c2ccccc2Br)CCS1 | 4.95% |
| Cc1nnc(NC(=O)c2ccc(F)cc2F)s1 | 2.77% |

| SMILES | % Inhibition @ 10 uM |
| --- | --- |
| C=CCc1cccc2cc(C(=O)NC(C)c3ccccc3)c(=O)oc12 (stereo not drawn) | -3.09% |
| COc1ccc(Br)cc1CNC1=NS(=O)(=O)C(c2ccc(C)c(C)c2)=C1C | -4.68% |
| Cc1cc(C)nc(Sc2ncnc3sc4c(c23)CCCC4)n1 | 9.61% |
| CCCOc1ccc(C(CC(=O)O)NC(=O)c2ccc(OC)cc2OC)cc1 (stereo not drawn) | 2.7% |
| O=C(Nc1cc(Cl)ccc1Cl)c1cccc(Cl)c1 | -4.87% |
| CCCCCn1c(=O)c(C(=O)NC(C)c2ccccc2)c(O)c2ccccc21 (stereo not drawn) | 1.4% |
| O=C(CNCc1cccnc1)Nc1ccc(OC(F)(F)F)cc1 | 5.25% |
| C=CCN1C(=O)/C(=C/c2ccc(Cl)cc2Cl)C(=O)NC1=S | 4.6% |
| COc1ccccc1N1C(=O)CC(Nc2ccc(C)cc2)C1=O (stereo not drawn) | -2.34% |
| Cc1ccc(NC(=O)c2ccc(C)c(C)c2)nc1 | -6.66% |
| COc1ccccc1CNC(=O)Cn1ncc2c3ccccc3nc-2c1O | 3.72% |
| COc1cccc(-c2cc(C(=O)O)c3cc(C)ccc3n2)c1 | -3.92% |
| Cc1noc(/C=C/N(C)C)c1S(=O)(=O)N1CCCC(C(=O)NC(C)c2ccccc2)C1 (stereo not drawn) | -4.69% |
| Clc1ccccc1OCc1nnc(-c2ccccc2Cl)o1 | 2.14% |
| CCN(CC)CCCOc1ccccc1OC | -2.54% |
| Cc1ccc2c(c1)-c1onc(C(=O)N(C)CCC#N)c1CO2 | -4.99% |
| CC(C(=O)Nc1ccccn1)c1cccc(C(=O)c2ccccc2)c1 (stereo not drawn) | -3.34% |
| CCCCCOc1ccc(C2C(C(=O)OCCOC)=C(C)N=C3SCCC(=O)N32)cc1 (stereo not drawn) | 2.24% |
| O=C(O)C1CC(=O)N(CCc2ccccc2)/C(=N\c2ccccc2)S1 (stereo not drawn) | 0.924% |
| CCC1CCCCN1C(=O)c1cnn(-c2ccc(C)cc2)c1-n1cccc1 (stereo not drawn) | -8.6% |
| O=c1oc2ccccc2cc1C1=Nn2c(nnc2-c2cccc(F)c2)SC1 | -2.38% |
| O=C(/C=C/c1ccccc1Cl)NC1CCS(=O)(=O)C1 (stereo not drawn) | -2.35% |
| O=C(Nc1ccc2c(c1)OCCO2)c1cnccn1 | -3.92% |
| Cc1ccc(NC(=O)CSc2nc(C)c3c(n2)CCCC3)cc1 | 47.6% |
| CC(C)(C)c1cc(CN2CCN(c3ccc([N+](=O)[O-])cc3)CC2)cc(C(C)(C)C)c1O | -1.98% |
| O=C1CC(c2cccnc2)Nc2ccc3ccccc3c21 (stereo not drawn) | -2.64% |

| SMILES | % Inhibition @ 10 uM |
| --- | --- |
| CC(C)CC(NC(=O)c1ccco1)C(=O)O (stereo not drawn) | 4.54% |
| CCN1C=C(Cc2cccs2)C2=C(C1)C(c1cccs1)C(C#N)=C(N)O2 (stereo not drawn) | 2.32% |
| O=C(Cc1ccccc1F)Nc1ccccn1 | 0.907% |
| Cc1onc(-c2ccccc2)c1C(=O)NC(C)c1ccccc1 (stereo not drawn) | -2.6% |
| CC(C)CCC(=O)N[C@@H](CC1CCCCC1)C(=O)NCC#N | -3.7% |
| N#Cc1c(-c2ccc(Br)cc2)cc(-c2ccccc2)nc1SCc1ccccc1 | -3.77% |
| CCOC(=O)C1=C(CN2CCC3(CC2)OCCO3)NC(=O)NC1c1ccc(F)cc1 (stereo not drawn) | -2.83% |
| OC1(c2ccc(Br)cc2)CCN(Cc2cccc(Cl)c2)CC1 | -3.6% |
| COc1ccccc1OCc1nc(C#N)c(NCc2ccc(F)cc2)o1 | 2.38% |
| Cc1ccc(OCCSc2ncnc3[nH]cnc23)cc1 | 1.92% |
| O=C1c2ccccc2S(=O)(=O)N1C1c2ccccc2Oc2ccccc21 | -5.7% |
| O=S1(=O)C=CC(N2CCOCC2)C1 (stereo not drawn) | 3.98% |
| CC1=C(C(=O)Nc2cc(C)ccn2)C(c2ccccc2C)C2=C(O)CCCC2=N1 (stereo not drawn) | -1.3% |
| COc1ccc(-c2cc(C(=O)NC3CCCCCCC3)c3ccccc3n2)cc1OC | -3.77% |
| C=CCOc1ccc(/C=C2\SC(=N)N(c3nccs3)C2=O)cc1OCC | 4.05% |
| Cc1nn(Cc2ccc(F)cc2)c(C)c1NC(=O)C1=CC(c2ccco2)=NS(=O)(=O)N1C | -2.84% |
| O=S1(=O)CC(O)C(N2CCCCC2)C1 (stereo not drawn) | 5.92% |
| O=c1nc2s/c(=C\c3ccco3)c(=O)n2nc1Cc1ccccc1 | -7.15% |
| CCCCC(NC(=O)Cc1ccccc1)C(=O)O (stereo not drawn) | -2.87% |
| CN(CC(=O)Nc1ncc(Br)s1)S(=O)(=O)c1cccc2cccnc12 | -0.692% |
| Cc1cc(Sc2ccc(Cl)cc2)ncn1 | -4.08% |
| CCCCOC(=O)CSc1nc2cc(OCC)ccc2[nH]1 | 1.88% |
| Cc1ccc(CNC(=O)c2ccc(C/N=c3\c(O)c(O)\c3=N/C3CCCCC3)cc2)cc1 | 1.15% |
| COc1ccc(NC(=O)C2CCN(S(=O)(=O)c3c(C)cc(C)cc3C)CC2)cc1Cl | 2.01% |
